# Test results as given in PubChem BioAssay AID924 (National Center for Advancing Translational Sciences (NCATS), 2007).
# The whole screen tested about 130,000 compounds, of which about 1,200 (0.92%) were called active. The shares of active, inactive and inconclusive entries below differ from those in the screen. Calls come from the whole dose curve; as a rule, active = well fitted cell-killing curve with a large enough effect; inconclusive = small, poorly fitted or top-dose-only effect; inactive = no such curve, though single readings can be large or run the other way. Potencies beside an inconclusive call are fits to weak or partial responses and may not hold up.
# Experiment: qHTS Screen for Compounds that Selectively Target Cancer Cells with p53 Mutations: Cytotoxicity of p53ts Cells at the Permissive Temperature; note: nearly all actives have a fitted effect of over 55% in size;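 for activity change, negative = cytotoxicity: 0% = DMSO and -100% = full killing by reference compound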
# Details: H1299-p53A138V at 32C, ATP luminescence viability, 24 h; activity change, negative = cytotoxicity: at 46.1 µM (top of the series)
# Procedure, shortened: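 Viability by ATPlite luminescence after 24 h compound treatment (up to 46 uM) at the permissive 32C. Cells are H1299 carrying p53 A138V. Scale runs from DMSO basal to 100 uM tamoxifen as full kill; AC50 from Hill fits.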
# Potency is the fitted concentration of half-maximal effect; tags give direction and shape of the fitted curve.
Compound,Potency,"activity change, negative = cytotoxicity"
COc1ccc(CCNC(=O)CCCn2c(=O)c3ccccc3n(CC(=O)Nc3ccc(C)cc3Cl)c2=O)cc1OC,"inconclusive: 31.6 µM [cytotoxic, single point]",
COc1cc2nc(Nc3ccc(C)c(C)c3)nc(N)c2cc1OC,"inconclusive: 35.5 µM [cytotoxic, single point]",
Cc1ccc(/C=C/c2nc3ccccc3n2S(=O)(=O)c2cccc(Cl)c2)cc1,active: 3.16 µM,
CCCCOC(=O)c1c(C)oc2ccc(NS(=O)(=O)c3ccc(F)cc3C)cc12,"inconclusive: 35.5 µM [cytotoxic, single point]",
O=C(/C(C=Nc1ccc(F)cc1)=C(/O)c1ccco1)C(F)(F)F,"inconclusive: 22.4 µM [cytotoxic, single point]",
O=C(COC(=O)Cc1ccsc1)NC(c1ccccc1)c1ccccc1,,inactive: -24.3%
CCOC(=O)CSc1ncnc2c1cnn2-c1ccc(C)cc1,"inconclusive: 12.6 µM [cytotoxic, single point]",
Cc1ccnc(N(C(=O)c2cccs2)C(=O)c2cccs2)c1,"inconclusive: 15.8 µM [cytotoxic, single point]",
CCOc1ccccc1C(=O)Nc1ccc2nc3c(c(Nc4ccc(OC)c(OC)c4)c2c1)CCCC3,"inconclusive: 17.8 µM [cytotoxic, partial curve]",
COc1ccccc1C(=O)Nc1onc2c1CCCC2,"inconclusive: 35.5 µM [cytotoxic, single point]",
Cc1cccc(OC(=O)c2cc(-c3ccc4c(c3)OCCO4)on2)c1C,active: 20 µM,
NC(=O)C1CCN(CC(=O)Nc2cccc(C(=O)Nc3cccc(C(F)(F)F)c3)c2)CC1,"inconclusive: 0.0079 µM [cytotoxic, full curve, poor fit]",
c1ccc(-c2onc3cc4c(cc23)OCCO4)cc1,"inconclusive: 10 µM [cytotoxic, partial curve]",
Cc1cc(Nc2ccccc2N2CCOCC2)n2ncnc2n1,,inactive: -20.1%
CC1=CC(C)(C)Nc2ccc(OC(=O)CN3C(=O)CCC3=O)cc21,"inconclusive: 31.6 µM [cytotoxic, single point]",
CCNc1ncc2nc(-c3ccc(OC)cc3)c(=O)n(CCc3ccccc3)c2n1,,inactive: -27%
Cc1ccc(S(=O)(=O)NCC(Nc2cccc(Cl)c2)c2ccccc2)cc1 (stereo not drawn),"inconclusive: 31.6 µM [cytotoxic, single point]",
COc1ccccc1-c1cc(C(F)(F)F)nc(S(=O)(=O)CCCC(=O)Nc2cc(C)on2)n1,"inconclusive: 31.6 µM [cytotoxic, single point]",
CCc1ccccc1NC(=O)CSc1nnc(COc2ccccc2Cl)o1,,inactive: -8.16%
Cc1ccc(Cn2nnc3c(=O)n(CC(=O)NCc4ccc5c(c4)OCO5)cnc32)cc1,"inconclusive: 2.51 µM [cytotoxic, full curve]",
COc1cccc(C(=O)Nc2cccc(SC)c2)c1,"inconclusive: 12.6 µM [cytotoxic, single point]",
Cc1ccc(CN2c3ccccc3-c3nc(SCC(=O)Nc4c(C)cc(C)cc4C)ncc3S2(=O)=O)cc1,"inconclusive: 12.6 µM [cytotoxic, single point]",
O=C(COc1ccccc1F)Nc1ccc2nc(SCC(=O)N3CCCC3)sc2c1,"inconclusive: 12.6 µM [cytotoxic, partial curve]",
CC(=O)Nc1ccc(S(=O)(=O)Nc2cccc(-c3ccc(N4CCCCCC4)nn3)c2)cc1,"inconclusive: 10 µM [cytotoxic, partial curve]",
COc1ccc(-c2nc3ccccc3s2)cc1NC(=O)c1cccc([N+](=O)[O-])c1C,"inconclusive: 12.6 µM [cytotoxic, partial curve]",

Compound,Potency,"activity change, negative = cytotoxicity"
Cc1nn(-c2ccc(Cl)cc2)c2sc(C(=O)N3CCN(C(=O)c4ccco4)CC3)cc12,,inactive: -0.154%
O=C(/C(C=Nc1ccc(Br)cc1)=C(/O)c1ccco1)C(F)(F)F,active: 11.2 µM,
Cc1cc(N2CCN(C)CC2)nc2ccc(NC(=O)Nc3ccccc3Br)cc12,active: 15.8 µM,
CC(=O)c1cccc(NC(=O)CN(c2ccc(C)cc2)S(=O)(=O)c2cccc3nonc23)c1,,inactive: 0.234%
CC(=O)c1ccc(Nc2nc(C)nc3c2oc2ccccc23)cc1,,inactive: -3.62%
O=C(Nc1nc(-c2nc3ccccc3s2)cs1)c1ccc(S(=O)(=O)N2CCOCC2)cc1,"inconclusive: 3.98 µM [cytotoxic, partial curve]",
CCc1cccc(N(C)C(N)=Nc2cccc3ccccc23)c1,"inconclusive: 20 µM [cytotoxic, partial curve]",
CCCOc1ccc(-c2nc3ccccc3c(=O)o2)cc1,active: 10 µM,
CCOC(=O)c1[nH]c2ccc(OC)cc2c1NC(=S)N1CCN(c2cccc(C)c2C)CC1,active: 11.2 µM,
COc1c(C)cc(S(=O)(=O)Nc2cccc(-c3ccc(N4CCOCC4)nn3)c2)c(C)c1C,"inconclusive: 15.8 µM [cytotoxic, partial curve, poor fit]",
CCOc1ccc(C(=O)Nc2cccc(C)n2)cc1,active: 5.01 µM,
Cc1cc(C)cc(NC(=O)CCCn2c3ccccc3c(=O)c3ccccc32)c1,"inconclusive: 7.94 µM [cytotoxic, partial curve]",
CCOc1ccc(CCNC(=O)c2sc3ncccc3c2-n2cccc2)cc1OCC,,inactive: 3.92%
COc1cccc(OC)c1C(=O)Nc1cccc(-c2cn3ccsc3n2)c1,"inconclusive: 15.8 µM [cytotoxic, single point]",
CCN(CCNC(=O)C1CCN(Cc2nc(-c3cccc(Cl)c3)oc2C)CC1)c1ccccc1,active: 12.6 µM,
c1cncc(-c2nnc(-c3cccs3)o2)c1,,inactive: -1.77%
Cc1cc2c(c(=O)o1)[C@H](O)[C@H]1O[C@@H]1C2=O,,inactive: 0.953% [at 9.22 µM]
CCc1ccc(C2CC(=O)c3c([nH]c(C(=O)OCCOc4ccccc4)c3C)C2)cc1 (stereo not drawn),"inconclusive: 25.1 µM [cytotoxic, single point]",
O=C(CSc1nnc(-c2ccc(Cl)cc2)o1)Nc1ccc(F)cc1,"inconclusive: 35.5 µM [cytotoxic, single point]",
O=C(CSCc1ccco1)c1cccs1,,inactive: -4.91%
COc1ccc(C(=O)Nc2nnc(C)s2)cc1,active: 12.6 µM,
COc1cccc(NC(=O)c2cccc(OC)c2OC)c1,"inconclusive: 12.6 µM [cytotoxic, partial curve]",
CCCCOc1ccc(C(=O)N2CCN(CCc3ccncc3)CC2)cc1,,inactive: 1.96%
COc1ccc2nc3c(nc2c1)C(=O)c1ccccc1-3,"inconclusive: 12.6 µM [cytotoxic, partial curve]",
CCCC(=O)Nc1ccc(N2CCCCC2)cc1,"inconclusive: 10 µM [cytotoxic, partial curve]",

Compound,Potency,"activity change, negative = cytotoxicity"
O=C(CSc1c2c(nc3ccc(Cl)cc13)CCCC2)N1CCN(c2cccc(Cl)c2)CC1,"inconclusive: 11.2 µM [cytotoxic, partial curve, poor fit]",
CCCC(=O)Nc1ccc(NC(=O)c2cccc(OC)c2)nc1,"inconclusive: 12.6 µM [cytotoxic, single point]",
COc1cccc(OCC(=O)Nc2ccccc2C(N)=O)c1,"inconclusive: 12.6 µM [cytotoxic, partial curve]",
Cc1ccc(C(=O)Nc2cccc(C(=O)O)c2)cc1S(=O)(=O)N1CCCC1,active: 12.6 µM,
COc1ccc(-c2[nH]ncc2C(=O)NCc2ccccc2C)cc1,,inactive: 2.69%
Cc1onc(-c2ccccc2Cl)c1C(=O)Oc1cc(F)cc(F)c1,"inconclusive: 17.8 µM [cytotoxic, partial curve]",
COc1ccc2nc(-c3cccc(N)c3)[nH]c2c1,active: 7.94 µM,
O=c1c2ccccc2nc2sc3ccccc3n12,"inconclusive: 15.8 µM [cytotoxic, single point]",
O=C(Nc1ccc2nc(-c3cccnc3)[nH]c2c1)C1CCCCC1,"inconclusive: 14.1 µM [cytotoxic, partial curve, poor fit]",
Clc1cccc(-n2ncc3c(N4CCCCC4)ncnc32)c1,active: 3.16 µM,
COc1ccccc1/C=C/c1nc2ccccc2n1C(C)C,"inconclusive: 12.6 µM [cytotoxic, partial curve]",
CCOC(=O)N1CCC(N2CCN(S(=O)(=O)CC)CC2)CC1,"inconclusive: 31.6 µM [cytotoxic, single point]",
O=c1oc(-c2cccs2)nc2scc(-c3cccs3)c12,,inactive: -13.9%
Cc1ccc(/C=C/c2onc(C)c2S(=O)(=O)N2CCC(C(=O)N3CCC(N(C)C(C)C)CC3)CC2)cc1,"inconclusive: 12.6 µM [cytotoxic, single point]",
Cc1ccccc1OCc1nc2ccccc2c(=O)n1/N=C/c1ccco1,,inactive: -4.87%
Cc1nn(-c2ccccc2)c(OC(=O)C(C)C)c1Sc1ccc(Cl)cc1,"inconclusive: 15.8 µM [cytotoxic, partial curve]",
COc1ccc(-c2cn3cc(C)ccc3n2)cc1OC,active: 10 µM,
Cc1ccc(C)c(NC(=O)CN2C(=O)CCc3ccccc32)c1,,inactive: -4.77%
O=C(O)c1cc(-c2ccccc2)n[nH]1,"inconclusive: 25.1 µM [cytotoxic, partial curve, poor fit]",
c1cn(CCCNc2ncnc3nc[nH]c23)cn1,"inconclusive: 15.8 µM [cytotoxic, single point]",
Cc1cc(C)c(NC(=O)Cn2c(=O)n(CC(=O)NCc3ccccc3Cl)c(=O)c3sccc32)c(C)c1,,inactive: 15.6%
CCN(CC)CCCNC(=O)c1ccc(Cc2nc3ccccc3[nH]2)cc1,,inactive: 7.98%
CCOC(=O)c1cccnc1SCC(=O)Nc1ccc(C)cc1C,"inconclusive: 11.2 µM [cytotoxic, partial curve, poor fit]",
